The results in this text go back to PubChem BioAssay AID463173 (ICCB-Longwood Screening Facility, Harvard Medical School, 2010).

In all, about 52,000 compounds went through this assay and about 4,300 (8.3%) were called active. Rule as the data show it: active = survival mostly below about 52% (no sharp cut-off); inactive = mostly above about 56%. The list shows a part of the results.

The subject of the assay is DeltatarO mutant. In words: S. aureus survival, RN4220 and DeltatarO strains – OD600, teichoic acid synthesis inhibitors, primary screen (AID 463173). As to conditions: S. aureus RN4220 wild type/DeltatarO growth, OD600, 18 h, hits give low values, screened at 18.75 µg/mL (by protocol).
Turning to `COc1ccc(-c2oc3ncn4nc(-c5ccccc5C)nc4c3c2-c2ccc(OC)cc2)cc1`, the survival is inactive: 110%.

Regarding `COc1ccc(Cl)cc1NC(=O)CSc1nc(-c2ccco2)cc(C(F)(F)F)n1`, the survival is active: 31%.

As for `Cc1ccc(NC2OC(=O)c3ccccc32)cc1` (stereo unspecified), the survival was active: 31%.

Take `CCOc1cc(C(=O)N2CCC(c3ccncc3)CC2)cc(OCC)c1OCC`: the survival is active: 17%.

`CCOc1ccc(NC(=O)CN2CCN(CC(=O)Nc3ccccc3OCC)CC2)cc1`: the survival is inactive: 92%.

With `NC(=O)C1CCN(C(=O)Cn2c(-c3cccs3)cc3ccccc32)CC1`, the survival was inactive: 73%.

As to `CCCCN(c1ccccc1)S(=O)(=O)c1ccc2c(c1)CC(C)N2C(=O)C1CC1` (stereo unspecified), the survival was inactive: 50%.

Consider `COc1ccc(CCNC(=O)CCn2c(=O)c3cccn3c3cccnc32)cc1OC`, for which the survival is inactive: 82%.

In the case of `CCc1ccccc1Nc1nc2ccccc2n2cnnc12`, the survival is inactive: 129%.

As for `CCCCNc1c2c3c(cccc3[nH]c1=O)C(=O)c1ccccc1-2`, the survival is inactive: 73%.

Regarding `COc1ccc(C)cc1NS(=O)(=O)c1ccc2[nH]c(=O)c(=O)[nH]c2c1`, the survival was inactive: 64%.

Take `CCn1ccc2cc(S(=O)(=O)N3CCCN(C(=O)NCCOC)CC3)ccc21`: the survival is inactive: 76%.

For `CC1CCCCN1S(=O)(=O)c1ccc(NC(=O)CSc2nc3ccccc3o2)cc1` (stereo unspecified), the survival is inactive: 57%.

As to `CCS(=O)(=O)N1CCc2cc(C(=O)Nc3cc(C(F)(F)F)ccc3Cl)ccc21`, the survival is inactive: 48%.

Take `CC1CCN(C(=O)C2CCN(Cc3cccc(O)c3)CC2)CC1`: the survival is inactive: 100%.

For `COc1cccc(NC(=O)Cn2c(=O)n(CCCCC(=O)NCCc3ccccc3)c(=O)c3ccccc32)c1`, the survival was inactive: 79%.

`CCOC(=O)C1=C(CN2CCN(c3cc(C)ccc3C)CC2)NC(=O)NC1c1ccc(Cl)cc1` (stereo unspecified): the survival was inactive: 84%.

As to `O=C(CSc1nc(C2CC2)nc2ccccc12)N1CCCCC1`, the survival is inactive: 83%.

For `Cc1ccc(C)c(CN2C(=O)c3ccccc3S(=O)(=O)c3ccc(C(=O)N4CCN(c5ccccc5F)CC4)cc32)c1`, the survival was inactive: 79%.

For `O=S(=O)(Nc1ccc(-c2ccc(N3CCCC3)nn2)cc1)c1cccc(C(F)(F)F)c1`, the survival is inactive: 119%.

Consider `COc1ccc(CNC(=O)CCc2nnc3n(CC(C)C)c(=O)c4ccccc4n23)cc1`, for which the survival was inactive: 90%.

As to `N#CCNS(=O)(=O)c1ccccc1`, the survival was inactive: 97%.

In the case of `O=C(NCc1ccccc1)C1CCN(C(=O)c2cnn(-c3ccccc3)c2-n2cccc2)CC1`, the survival is inactive: 111%.

In the case of `C=Cc1ccc(Cn2c(=O)n(-c3ccc(C)cc3)c(=O)c3c2c2cc(OC)ccc2n3C)cc1`, the survival is inactive: 79%.

For `CCOc1ccc2nc(N3CCCC(C(=O)NCc4ccccc4Cl)C3)sc2c1` (stereo unspecified), the survival was inactive: 62%.

In the case of `COc1ccc2cc(C(=O)NCc3ccc4c(c3)CCN4C(=O)c3ccc(C)cc3)[nH]c2c1`, the survival was inactive: 75%.

On to `CCOc1ccc(NC(=O)Cn2c(=O)n(CC3CCCO3)c(=O)c3ccccc32)cc1` (stereo unspecified), for which the survival is inactive: 82%.

For the molecule `CCc1ccc(-n2nc(C)c3c(C)cc(=O)n(CC(=O)NCc4ccc(C)cc4)c32)cc1`, the survival was inactive: 71%.

In the case of `CCc1ccc(NC(=O)CSc2nc(C)cc(COC)c2C#N)cc1`, the survival was inactive: 84%.

In the case of `CC(C)CCNc1nc2c(S(=O)(=O)c3ccc(Br)cc3)nnn2c2ccsc12`, the survival is inactive: 96%.

As for `O=C(NCc1cccnc1)C(=O)NCC(c1cccnc1)N1CCN(c2ccccc2)CC1` (stereo unspecified), the survival is inactive: 53%.

Regarding `CCc1cc2c(cc3c(=O)n(CC(=O)N4CCN(c5cc(Cl)ccc5C)CC4)nc(CC)n32)s1`, the survival is inactive: 83%.

Take `CCc1nc2ccccc2c(NC(=O)CN(CC)CC)c1C`: the survival was inactive: 102%.

Regarding `CCCCCCc1cc2cc(-c3nnc(-c4ccc(C)cc4)o3)c(=O)oc2cc1O`, the survival is inactive: 124%.

Take `Cc1ccc(CNC(=O)C2CCCN(c3nnc(-n4c(C)ccc4C)s3)C2)cc1` (stereo unspecified): the survival was inactive: 79%.

For the molecule `CCc1ccc(NC(=O)Cn2c(=O)oc3cc(S(=O)(=O)NCc4ccccc4)ccc32)cc1`, the survival is inactive: 102%.

Regarding `COc1ccc(NC(=O)CSc2nc(O)c(C/C=C/c3ccccc3)c(=O)[nH]2)cc1`, the survival was inactive: 94%.

On to `Cc1ccc(C)c(Cn2c(C)c(CNCc3ccc(F)cc3)c(C(=O)O)c2C)c1`, for which the survival is inactive: 86%.

`COc1ccc(CCNC(=O)CCCCCn2c(=O)[nH]c3cc(OC)c(OC)cc3c2=O)cc1OC`: the survival was inactive: 76%.

Take `CC(=O)Nc1nnc(SCc2cc(=O)c3cccc(C)c3[nH]2)s1`: the survival was inactive: 91%.

Consider `CCOC(=O)c1cccc(NC(c2nnc(-c3ccccc3)o2)c2ccccc2F)c1` (stereo unspecified), for which the survival was inactive: 80%.

Regarding `Cc1ccc(C)c(N2CCN(c3nc4ccccc4c4nc(-c5cccnc5)nn34)CC2)c1`, the survival is inactive: 92%.

Regarding `CC(C)C(=O)Nc1cccc(NC2=NS(=O)(=O)c3ccccc32)c1`, the survival was inactive: 78%.

Take `CSc1nnc(COc2ccc(Br)cc2)n1Cc1ccccc1`: the survival was inactive: 97%.

For `CCc1ccc(C2=CC(c3cccc(Br)c3)n3nnnc3N2)cc1` (stereo unspecified), the survival was inactive: 72%.

For `Cc1ccc2c(c1)c(=O)c(C(=O)c1ccncc1)cn2CC(=O)Nc1ccccc1Cl`, the survival is inactive: 67%.

Take `COc1ccc(-c2cc(C(F)(F)F)n3nc(C(=O)Nc4cccc(C(F)(F)F)c4)c(Br)c3n2)cc1`: the survival was inactive: 73%.

For the molecule `CCOC(=O)c1sc2ccccc2c1S(=O)(=O)NCc1ccc(F)cc1`, the survival is inactive: 94%.

As for `CCOC(=O)c1ccc(NC(=O)CCn2cnnn2)cc1`, the survival is inactive: 76%.

As to `CC1(C)CC(NC(=O)C2CCCCC2)CC(C)(C)N1`, the survival is inactive: 66%.

Take `COC(=O)c1cnc(N2CCN(c3ccccc3OC)CC2)c2ccccc12`: the survival is inactive: 94%.

Regarding `O=C(Cn1cnc2ccccc2c1=O)Nc1ccccc1`, the survival is inactive: 82%.

As for `CC1=C(c2ccc(Cl)cc2)S(=O)(=O)N=C1N1CCN(c2cccc(C(F)(F)F)c2)CC1`, the survival was inactive: 71%.

As for `O=S(=O)(c1ccc(Br)cc1)N1CCOCC1`, the survival was inactive: 94%.

In the case of `CCSc1nc(-c2ccc(Cl)cc2)nc2c1Cc1c(CO)cnc(C)c1O2`, the survival is active: 39%.

For the molecule `COc1ccccc1CNC(=O)CCC1N=C2c3ccccc3N=C(SCc3ccccc3Cl)N2C1=O` (stereo unspecified), the survival was inactive: 49%.

Take `Cc1cccn2c(=O)cc(COc3ccc(NC(=O)c4cccc(F)c4)cc3)nc12`: the survival was active: 17%.

With `CCC1CCCCN1C(=O)Cn1c(=O)n(CCCCCC(=O)NCc2ccc(F)cc2)c(=O)c2sccc21` (stereo unspecified), the survival was inactive: 170%.

As to `O=C(O)CCn1cnc2onc(-c3ccccc3Cl)c2c1=O`, the survival is inactive: 65%.

In the case of `O=C(Nc1c(C(=O)Nc2cccc(C(F)(F)F)c2)oc2ccccc12)c1cc(=O)c2ccccc2o1`, the survival was inactive: 78%.

Consider `Cn1nnc2cc(C(=O)N(CCO)c3ccccc3)ccc21`, for which the survival is inactive: 107%.

Turning to `CCn1c(=O)c2cc(C(=O)NCCCN(C)Cc3ccccc3)sc2c2ccccc21`, the survival was inactive: 106%.

On to `CCc1cccc(NC(=O)Cn2cc(C(=O)c3ccncc3)c(=O)c3cc(C)c(C)cc32)c1`, for which the survival was inactive: 102%.

As for `C=CCN1C(=O)C(C)(C)N(C(C)=O)c2ccccc21`, the survival was inactive: 113%.

On to `O=C(NCc1ccccc1Cl)c1ccc(CSCc2cccc(F)c2)o1`, for which the survival is active: 17%.

On to `Cc1ccc(NC(c2nnc(-c3ccccc3)o2)c2ccccc2F)c([N+](=O)[O-])c1` (stereo unspecified), for which the survival was inactive: 91%.

Turning to `CC(C)(C)NC(=O)C1C2CCCCC21` (stereo unspecified), the survival is inactive: 72%.

Regarding `CCn1c(-c2ccc(C(C)(C)C)cc2)n[nH]c1=S`, the survival is inactive: 86%.

As for `Cc1ccc(-n2nnnc2CNC(=O)c2ccccc2F)cc1C`, the survival was inactive: 107%.

For `Cc1nc(-c2ccccc2)sc1CCNC(=O)C(=O)Nc1ccc2c(c1)OCCO2`, the survival is inactive: 67%.

Regarding `Cc1ccc(CNC(=O)CCCN2C(=O)c3cccnc3Oc3ccc(Cl)cc32)cc1`, the survival is inactive: 99%.

Turning to `O=C(Nc1nnc(S(=O)(=O)N2CCCCCC2)s1)c1ccccc1Cl`, the survival was active: 38%.

As for `CC(C(=O)N1CCCC1)N1CCN(c2ccc(F)cc2)CC1` (stereo unspecified), the survival was inactive: 87%.

`COc1cc(OC)c(NC(=O)N2CCc3c(sc4c3CCCC4)C2c2ccccc2)cc1Cl` (stereo unspecified): the survival was inactive: 95%.

As to `Cc1cccc(NC(=O)C(Cc2ccccc2)n2cccc2)c1C` (stereo unspecified), the survival was inactive: 75%.

Take `Nc1nc2ccc(C(=O)O)cc2s1`: the survival is inactive: 79%.

Consider `CCOc1ccc(NC(=O)c2cc3c(s2)-c2ccccc2OC3)cc1`, for which the survival is inactive: 95%.

As to `OC(C#CCN1CCCC1)(c1ccccc1)C1CCCC1` (stereo unspecified), the survival was inactive: 73%.

For `CC(C)CC(=O)NCC1(N(C)C)CCCCC1`, the survival is inactive: 84%.

Take `CCCc1ccc(OCC(=O)Nc2sc3c(c2C(=O)OC)CCCCC3)cc1`: the survival was active: 38%.

With `CCCCOc1ccccc1C(=O)Nc1nonc1-c1ccccc1`, the survival was inactive: 96%.

For `Cc1cccc(N(C)c2nc3ccc(C)cc3n3cnnc23)c1`, the survival was inactive: 62%.

With `COc1cc([N+](=O)[O-])ccc1NC(=O)N1CCN(c2cc(-c3noc(C)n3)ccc2C)CC1`, the survival is inactive: 94%.

In the case of `COc1ccc(NC(=O)C(C)n2nnc3sc(-c4ccccc4)cc3c2=O)cc1Cl` (stereo unspecified), the survival was inactive: 77%.

For the molecule `CCOc1ccc(CCNC(=O)c2cc(=O)[nH]c3ccc(S(=O)(=O)N4CCCCC4)cc23)cc1OCC`, the survival is inactive: 83%.

`CCOc1ccccc1CNC(=O)C1CCN(S(=O)(=O)c2c(C)noc2/C=C/c2ccc(C)cc2)CC1`: the survival is inactive: 98%.

With `COc1cccc(NC(=O)C(=O)NCCc2csc(-c3ccc(C(F)(F)F)cc3)n2)c1`, the survival was inactive: 94%.

Take `Cc1cccc(-c2nc(CSCC(=O)N3CCN(c4ccccc4)CC3)c(C)o2)c1`: the survival is active: 17%.

Take `COc1ccccc1N1CCN(c2ccc(-c3nc(-c4ccccc4C)no3)cc2[N+](=O)[O-])CC1`: the survival was inactive: 80%.

For `COc1ccccc1Cc1nc2ccccc2nc1SCC(=O)N1CCc2ccccc21`, the survival was inactive: 58%.

Take `CCOC(=O)c1ccc(NC(=O)CSc2nccn2-c2ccc(OCC)cc2)cc1`: the survival is inactive: 70%.
